Laboratory results from publication PMC10668032.
The list shows a part of the results. At the low end of the ranking the order means little.

molecular target: SIX1 homeodomain (reference allele) (UniProt Q15475); experiment: universal protein binding microarray; conditions: Universal all-10-mer PBM (8x60K, AMADID 030236), 300 nM GST-tagged protein, Alexa Fluor 488 anti-GST; buffer, salt, pH and temperature not stated; high values mean tight binding; most listed sequences are background and not binding sites; double strand, one strand shown

| Sequence | binding signal |
| --- | --- |
| CGAACCCG | 0.0612 E-score |
| AGTCAGCG | -0.16 E-score |
| CCTATCAC | 0.387 E-score |
| ACACACAA | -0.0656 E-score |
| GATCCCAC | 0.379 E-score |
| CGGCTCAA | 0.138 E-score |
| AACAGGAA | -0.158 E-score |
| CGCAGCAG | -0.151 E-score |
| ACTCAGTG | 0.00344 E-score |
| ATGATATC | 0.476 E-score |
| AGCTAAGA | 0.0234 E-score |
| CAATACAA | -0.0114 E-score |
| ATTCCTGC | -0.0499 E-score |
| ACATCCAG | 0.0701 E-score |
| ACGCTTTG | -0.116 E-score |
| ATTGCTCC | -0.195 E-score |
| CCAGTTCG | -0.148 E-score |
| GCTCAAAA | -0.235 E-score |
| AAACGAAT | -0.135 E-score |
| AGGGCGAG | -0.129 E-score |
| CAAGGACA | 0.083 E-score |
| CGAGCCGC | 0.0277 E-score |
| AGACTGAT | 0.203 E-score |
| GCCTAGGA | -0.157 E-score |
| GCCGAGCA | -0.213 E-score |

| Sequence | binding signal |
| --- | --- |
| AATGAGCT | 0.0351 E-score |
| CCCATTCC | -0.0994 E-score |
| CAGAGCAG | -0.0504 E-score |
| AACAGAAG | -0.103 E-score |
| CCCTGTTC | -0.0415 E-score |
| AACGTGGC | -0.289 E-score |
| CATGTACC | -0.138 E-score |
| GCAGAAGC | -0.0902 E-score |
| AAGCCCGA | -0.149 E-score |
| CGTAGACC | -0.133 E-score |
| TAAACGGA | 0.0177 E-score |
| AACACCAG | 0.164 E-score |
| GCCGCACC | -0.114 E-score |
| TCTTGCAA | 0.016 E-score |
| GTAGCGAC | -0.149 E-score |
| AGGGCGCC | -0.0615 E-score |
| CAACACCG | 0.268 E-score |
| AGTCTGCC | -0.276 E-score |
| CCAGTAGC | -0.0562 E-score |
| AAGTTTGA | -0.196 E-score |
| GGAAGAAC | -0.0415 E-score |
| CTCGTGGA | 0.0194 E-score |
| TAGTACCA | -0.0455 E-score |
| CAGGGAGC | -0.0701 E-score |
| CACCGATC | 0.305 E-score |

| Sequence | binding signal |
| --- | --- |
| AGTGCGGC | -0.237 E-score |
| CCATATCC | 0.424 E-score |
| GTCGGTGA | -0.0501 E-score |
| CGCAGTGA | 0.0026 E-score |
| CAGGCTAA | -0.0834 E-score |
| CTGGTCGC | -0.0995 E-score |
| CACGACCG | -0.0541 E-score |
| CCATAACG | -0.0978 E-score |
| CAGATCCC | 0.295 E-score |
| AAATGCCG | 0.0387 E-score |
| AATGAACG | -0.137 E-score |
| ATAAGGTA | 0.247 E-score |
| GACAAAGC | -0.161 E-score |
| TCTTGAAA | -0.133 E-score |
| CGAGCGAG | -0.0686 E-score |
| GATGGAGA | 0.115 E-score |
| ACTCGCCT | -0.196 E-score |
| AACCCACT | -0.0296 E-score |
| CGGACGAG | -0.0259 E-score |
| GCAACGGC | -0.0657 E-score |
| CCGGACCC | -0.0779 E-score |
| ATGTGATC | 0.32 E-score |
| ACACCATG | 0.306 E-score |
| TAAACCAA | -0.139 E-score |
| ACTCAGGA | -0.0788 E-score |

| Sequence | binding signal |
| --- | --- |
| AAGCCGGA | 0.159 E-score |
| GCGAGGGA | 0.129 E-score |
| ACCGTAAA | -0.0485 E-score |
| GGCTCAAC | 0.0429 E-score |
| GACCACGA | -0.108 E-score |
| CACTCAAG | -0.129 E-score |
| AAAGATAT | 0.351 E-score |
| GTTACATA | 0.0693 E-score |
| ACCCCCCT | -0.0405 E-score |
| AAAACCAC | -0.0309 E-score |
| AACCAACC | -0.155 E-score |
| CGACACCC | 0.439 E-score |
| CCAGCAGG | -0.0501 E-score |
| CTTCACCA | -0.145 E-score |
| GAATGACA | -0.153 E-score |
| CCCTTCCG | -0.0173 E-score |
| ACCGCGAC | -0.0162 E-score |
| GAGGGTCA | -0.156 E-score |
| ACTTTAGC | -0.121 E-score |
| CAGGAGTA | -0.00349 E-score |
| ACACGGCC | -0.131 E-score |
| CCAACACG | -0.129 E-score |
| AAACACTT | -0.22 E-score |
| GGAGACAA | 0.104 E-score |
| CACGATAG | 0.245 E-score |

| Sequence | binding signal |
| --- | --- |
| GCTCCGAC | -0.308 E-score |
| CCATCCCA | 0.142 E-score |
| CCTTTTAG | -0.147 E-score |
| ACCCTCCA | -0.059 E-score |
| ACGACTTG | -0.119 E-score |
| GGTTACAC | 0.145 E-score |
| GGGTGAAA | 0.0311 E-score |
| ATGTAGTA | -0.081 E-score |
| GAGCGCTC | -0.0898 E-score |
| AGTAACCA | -0.147 E-score |
| AAGCTGAA | -0.17 E-score |
| CGATGTAC | 0.0777 E-score |
| CTAATAGA | 0.0898 E-score |
| TAGGTTAA | 0.00465 E-score |
| CAAGAGTA | 0.0551 E-score |
| CCTTTGCC | -0.22 E-score |
| CTCTAAGA | -0.0514 E-score |
| AGGGCCAA | -0.261 E-score |
| ACCAGGTC | -0.136 E-score |
| CTACGCAA | -0.167 E-score |
| AGTCTGTC | -0.219 E-score |
| CGGACAAA | -0.23 E-score |
| CCCATCCG | 0.191 E-score |
| TGCGGACA | 0.00786 E-score |
| ACCGTCAA | -0.175 E-score |

| Sequence | binding signal |
| --- | --- |
| ATCCGTCG | 0.239 E-score |
| TCGGTCCA | -0.164 E-score |
| CAAACTCA | -0.236 E-score |
| GCGTGGAA | -0.13 E-score |
| CGAATGTC | -0.124 E-score |
| CCGATAAC | 0.239 E-score |
| CAAAGAAC | -0.255 E-score |
| CTTACTAA | -0.102 E-score |
| ACCAACCT | -0.212 E-score |
| TACCCAGA | 0.263 E-score |
| AAAGAGTA | -0.0122 E-score |
| ACCTTAGT | -0.0479 E-score |
| GTGAAGGA | -0.0092 E-score |
| CGATGAAC | -0.0238 E-score |
| AAAGTGGT | -0.0188 E-score |
| AGAGGCGC | -0.166 E-score |
| AGACAGAT | 0.177 E-score |
| AAACTAGA | 0.116 E-score |
| AGTTCGTG | -0.0892 E-score |
| TCGACTAA | 0.0421 E-score |
| CCAATTAC | -0.173 E-score |
| GAATCACA | -0.0516 E-score |
| AGCGCTTA | -0.0208 E-score |
| CGTGTGTA | 0.126 E-score |
| GAACATTC | -0.253 E-score |

| Sequence | binding signal |
| --- | --- |
| GTTTAGGA | -0.0944 E-score |
| AACTGGAT | 0.172 E-score |
| GGCCGTCA | -0.16 E-score |
| ACGTAGGA | 0.0269 E-score |
| AAGAAATG | -0.229 E-score |
| GGATCACA | 0.436 E-score |
| CCGGGGCA | -0.0827 E-score |
| CTACTTTC | -0.195 E-score |
| CCCTCCGC | 0.00851 E-score |
| AACCCTTG | 0.0654 E-score |
| GAGTGATA | 0.447 E-score |
| CACTCCGG | 0.195 E-score |
| AGCAGTTG | -0.139 E-score |
| CGCTGACG | -0.311 E-score |
| AAGAGATA | 0.235 E-score |
| ACGCTCCG | -0.261 E-score |
| CATCGAGG | 0.0206 E-score |
| GACGAACA | -0.227 E-score |
| TATCTGGA | 0.309 E-score |
| ATGCAGAG | -0.0626 E-score |
| AGTGGGTC | -0.073 E-score |
| AGGGGCCA | -0.0959 E-score |
